Results as given in the supplement of paper PMC11417369.
± gives the standard deviation of the averaged measurements. The list shows a part of the results.

test system: PfAP2-I AP2 domain 3 (GST-tagged); test: gcPBM binding intensity (ln(normalized median fluorescence intensity)); higher = stronger DNA binding
Outline: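 Plasmodium falciparum DNA-binding domains carrying a GST tag were expressed in E. coli and applied for 1 h, at about 25 μg on average, to an Agilent 4 × 180k array. The array held primer-extended double-stranded 36-bp intergenic genomic probes together with negative controls, and binding took place in 1× PBS with 1% milk, 0.2 mg/ml BSA, 0.5% salmon testes DNA and 0.03% Triton X-100. An Alexa488 anti-GST antibody detected bound protein, and the array was scanned at 488 nm. Binding intensity is taken as the highest Masliner-normalised natural-log median intensity across replicate spots of either probe orientation.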

Row | Sequence | gcPBM binding intensity (ln)
1 | ATAATAATAAAAATTATACATAAGTATATGCACATA [XGTACX_negctrl_site583] | 9.78 ± 0.42
2 | TTTTGCTTTTTTTTTCTTTTTTGTTTTATATATATT [CACACA_negctrl_site103] | 7.5 ± 0.64
3 | ACATATGGTATTTAAACACACAAAAAAGAAAGAAAA [CACACA_site991] | 7.75 ± 0.76
4 | CCACATTAAAAAAAAACACACATATATTATATATAT [CACACA_site1155] | 8.46 ± 0.51
5 | AAAATGACATAATGGGGAATAGACATATACATAAAT [CACACA_negctrl_site1669] | 7.73 ± 0.83
6 | GTTACAGAGAATGTTGTGCACATATCAATAATATAT [GTGCAC_site9671] | 10.44 ± 0.064
7 | AATACATGAATATGTAGTACAGAAAAAAAAAATATA [XGTACX_site1945] | 7.89 ± 0.6
8 | TATATATATATATATATTTTAAATGATATAAATGGT [TGCATGCA_negctrl_site152] | 9.26 ± 0.63
9 | AATTAATTAAATTAATGTACACATATATTTGTATTC [XGTACX_site2341] | 7.96 ± 0.19
10 | TCCCTTCATCTTTTATGTACTAAAAAATTGAATAAT [XGTACX_site2172] | 8.04 ± 0.26
11 | TAATACGAATGAGGCACACACCTAGTATACATGCTT [CACACA_site6438] | 7.79 ± 0.7
12 | AATTAAAATTTTTGAAGTACACTCAAAATAAGTTAT [XGTACX_site4490] | 7.95 ± 0.092
13 | AATTAATGGCTAAAGGTGCACAATATATATATTACA | 11.3 ± 0.19
14 | AAAATAAAAAAAAACACACACATACAAGCATATATA [CACACA_site1585] | 7.52 ± 0.55
15 | AAAAAAAAATTTAAGGGTACATACAAATATATATAT [XGTACX_site5078] | 8.81 ± 0.085
16 | TGGAATAATCCGCGTACACACATATATATATTAAGA [CACACA_site4253] | 8.31 ± 0.042
17 | TTATATTCTAGAGACACATGCGATTTTTTATTTTAT [TGCATGCA_site649] | 7.61 ± 0.69
18 | AATTAACCCTAATTTTGTACATATTCCTTTTCTCAT [XGTACX_site46] | 7.92 ± 1
19 | AATAAAAATAGGAATACGCACACGATGATTAATTTA [CACACA_site1836] | 7.88 ± 0.52
20 | TATACCACACGATATACACACTTGTAGACATCTTTT [CACACA_site6232] | 7.76 ± 0.64
21 | GTTACTATGATTAATGCATGCAAATACCAAAAAAAA [TGCATGCA_site590] | 8.54 ± 0.71
22 | TATTTTTATTGGTACTGTACCTATTTAGAAATACAT [XGTACX_site6663] | 7.99 ± 0.19

Row | Sequence | gcPBM binding intensity (ln)
23 | ATGATTTCATTTGAGAGTACGTAAAAATAATACGTA [XGTACX_site4958] | 7.54 ± 0.38
24 | TTTGCCATATGACACACACACATGTAAACCCCCTTT [CACACA_site6873] | 8.84 ± 0.042
25 | TAATACAAAAACAATGTTCTTTCAAACATAAACATA [CACACA_negctrl_site1628] | 7.28 ± 0.41
26 | TATTTATAAAAAAATACATGCATTTTTTTTTTTTTT [TGCATGCA_site65] | 8.26 ± 0.54
27 | TGTTAATTCTTAAGAATTTCCATAATTTCTTCTTTT [CACACA_negctrl_site1065] | 7.35 ± 0.57
28 | TATATATATATATATTTTTTTTTTTTATGCACATGG [CACACA_negctrl_site1573] | 10.3 ± 0.53
29 | TTTTTTTTTTTGAAATGTACATTCCAAAAACTGATA [XGTACX_site1495] | 8.04 ± 0.84
30 | CTTTTGAACAGTTCATGTACTCAATTTTTTAATAGT [XGTACX_site6498] | 7.73 ± 0.31
31 | TAATACCTATGGTATAGTACGTATTATTTTATAGAG [XGTACX_site2078] | 7.5 ± 0.39
32 | TATTAGAACATATATGCATGCAATAGATATTCCAAT [TGCATGCA_site297] | 8.02 ± 0.99
33 | TATGTATAATTTCATTGTACTTTTGATATTATCATA [XGTACX_site280] | 7.43 ± 0.31
34 | ATATCATTTTCTAGCACACACATTGTTATTACCTTG [CACACA_site902] | 8.38 ± 0.68
35 | AGTCTGAATAAAATTACACACATATACAGATATATA [CACACA_site5054] | 7.73 ± 0.44
36 | TTTTTTTAAATATACACACACATTTATACAGATATA [CACACA_site5811] | 7.96 ± 0.49
37 | TTTCTAAAAATAAGAACACACACATATAAGCATATA [CACACA_site8714] | 7.93 ± 0.33
38 | ACTGCGTTTTTACACGCGCACTGCAATGAACAATAT | 8.47 ± 0.48
39 | TATGTAACAAAAAAAAGTACACATATATATAGTGTA [XGTACX_site7772] | 7.985 ± 0.007
40 | AAGATAATCACAAAATGTACAGGAAATATGACAACC [XGTACX_site3607] | 8.26 ± 0.73
41 | TTTTCTAAATTAATAATACACACTTGCTAAAATCAT [CACACA_site3207] | 7.78 ± 0.56
42 | AAGAAAAAGGAACGGAAAAACAAACAAGGGGCCCAA [TGCATGCA_negctrl_site4] | 7.69 ± 0.91
43 | AATGGTATAAACAATACACACATAATATATATATTG [CACACA_site4997] | 7.61 ± 0.63
44 | AGTGGTGTTAAATGTTGTACGATTTTGTGTTATTCG [XGTACX_site178] | 8.36 ± 0.41
